# According to PubChem BioAssay AID485313 (National Center for Advancing Translational Sciences (NCATS), 2010):
# Among all 320,000 compounds or so, about 7,600 (2.4%) were called active. The inconclusive results got no clear call from the source; some entries with a clear call stand among them for comparison. The call rests on the fitted dose curve; in most records, active means well fitted activation curve with a large enough effect; inconclusive means small, poorly fitted or top-dose-only effect; inactive means no such curve, though single readings can be large or run the other way. Potencies of inconclusive entries are left out as doubtful fits.
# Test: qHTS Assay for NPC1 Promoter Activators; further: nearly all actives have a fitted effect of over 60% in size;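 on activation: reporter is driven by a mutant NPC1 promoter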
# Conditions: Huh7 NPC1 promoter luciferase reporter, 24 h; series mostly up to 9.22 µM
# Method in brief: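 Readout is luciferase luminescence, reflecting NPC1 promoter activation in stably transfected Huh7 cells after 24 h compound exposure at 37 °C in reduced-serum medium with 10% FBS.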
# Potency means the concentration at half of the fitted maximal effect; tags describe the fitted curve by direction and shape.
row,Compound,Potency
1,COCC(C)n1c(C)cc(C(=O)CSc2ccc(NC(C)=O)cc2)c1C (stereo not given),"inconclusive [activator, partial curve]"
2,Cc1ccc(/C=N/NC(=O)c2n[nH]c3c2CCCC3)cc1,"inconclusive [activator, partial curve]"
3,Cc1ccc(C(C)C)c(OCC(=O)NN2C(=O)c3ccccc3C2=O)c1,"inconclusive [activator, single point]"
4,O=C(/C=C/c1ccccc1)NC(=S)NNC(=O)Cc1cccs1,inactive
5,Cc1c(C(=O)/C=C/c2cccs2)oc2ccc(F)cc12,active: 3.98 µM
6,CCOc1ccc(N(CC(=O)Nc2cccc(C)c2)S(C)(=O)=O)cc1,"inconclusive [activator, partial curve]"
7,COc1cc(C(=S)N2CCCC2)ccc1OCc1ccc(C)cc1,"inconclusive [activator, single point]"
8,O=C(Nc1cccc(O)c1)c1cc(-c2ccc3c(c2)OCO3)on1,"inconclusive [activator, single point]"
9,Clc1ccc(-c2nnc3n2CCCCC3)cc1,inactive
10,N#Cc1nc(COc2ccccc2)oc1N1CCOCC1,"inconclusive [activator, single point]"
11,Cc1ccc(-c2nc(SCC(=O)Nc3ccccc3OC(F)F)c3c(C)c(C(=O)O)sc3n2)cc1,"inconclusive [activator, single point]"
12,CCn1cc(Cl)c(C(=O)Nc2ccc3c(c2)OCCO3)n1,active: 3.16 µM
13,CCCS(=O)(=O)NCc1cn2c(C)csc2n1,"inconclusive [activator, partial curve]"
14,C=CCN(c1ccc(F)cc1)S(=O)(=O)c1cc(C(=O)OCC(=O)N(C)C2CCS(=O)(=O)C2)ccc1Cl (stereo not given),inactive
15,CC(C)(C)N=C1NN=C(c2ccc(Cl)cc2)CS1,active: 0.794 µM
16,O=C(c1c(Cl)cccc1Cl)N1CCCCCC1,"inconclusive [activator, single point]"
17,O=C(Nc1nccs1)c1cccc(NC(=O)C(F)(F)F)c1,"inconclusive [activator, single point]"
18,CCOC(=O)C1CCN(C2CCN(C(=O)c3oc4c(C)c(C)ccc4c3C)CC2)CC1,"inconclusive [activator, partial curve]"
19,O=C(CCc1nnc(CCCc2ccccc2)o1)NC(C1CC1)C1CC1,"inconclusive [activator, single point]"
20,Cc1ccc(C(=O)COC(=O)c2ccc(Cl)c(N)c2)s1,"inconclusive [activator, single point]"
